Results taken from the supplement of paper PMC11417369.
± gives the standard deviation of the averaged measurements. The list shows a part of the results.

tested on: PfAP2-EXP AP2 domain (GST-tagged); experiment: gcPBM binding intensity (ln(normalized median fluorescence intensity)); higher = stronger DNA binding
In short: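 Binding intensity is defined as the maximum Masliner-normalised natural-log median intensity across replicate spots for either probe orientation. It was measured on an Agilent 4 × 180k array of primer-extended double-stranded 36-bp intergenic genomic probes and negative controls, to which GST-tagged P. falciparum DNA-binding domains made in E. coli were applied for 1 h in 1× PBS with 1% milk, 0.2 mg/ml BSA, 0.5% salmon testes DNA and 0.03% Triton X-100. Detection was by Alexa488 anti-GST antibody and scanning at 488 nm.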

| Sequence | gcPBM binding intensity (ln) |
| --- | --- |
| TTTATATGTATGAAGTGTACACATATATTGTATTTT [XGTACX_site5731] | 8.62 ± 0.28 |
| TTACAAAAAAATAATTGTACATACAATTTCTGTTAT [XGTACX_site877] | 8.31 ± 0.23 |
| TATGGAAATATATATTGTACGTATGACCTTTAAAAA [XGTACX_site3935] | 8.56 ± 0.37 |
| TGGATAAAATAAAAATGTACTTAACATTTATATTTT [XGTACX_site712] | 8.02 ± 0.28 |
| AACAAAAGTAATTAAAAACAATACAAACATATGTTT [XGTACX_negctrl_site220] | 8.28 ± 0.48 |
| ATGTATGAAAAAATGTGTACATAATTTTTTTTTTTT [XGTACX_site5444] | 8.48 ± 0.23 |
| ATCATTCAAAAATGCTGTACTAGGGGAAAACGTGTT [XGTACX_site7168] | 8.65 ± 0.49 |
| ATATATAGGTTCCCTTTTCTTTTTTTTTTTTTTTTT [CACACA_negctrl_site1159] | 8.45 ± 0.4 |
| TTTCTAATTTATATCACACACATATAAATATAGTAA [CACACA_site6210] | 8.42 ± 0.38 |
| AAATAATATAAACATACACACACACCGATATATATA [CACACA_site8945] | 8.9 ± 0.31 |
| TTTGGAATATTAATTGTGCACTTAAAAAGTTAATTA | 8.9 ± 0.47 |
| TTAAATGTTGGTTGTAGTACTCCATATGTTGTTTTA [XGTACX_site5312] | 8.53 ± 0.39 |
| CTTATGTGCATACCTACACACTTACATATATATATA [CACACA_site8973] | 10 ± 0.14 |
| TGATACTGCAAAAAATATAAAAAAATAATAAAATAA [CACACA_negctrl_site791] | 8.37 ± 0.3 |
| TATATATATATAAGATGTACCCTTTGAAATAATAAT [XGTACX_site7215] | 9.84 ± 0.23 |
| AACATAAAACGTAATATATTACAAATATAAACAATC [CACACA_negctrl_site1675] | 9.12 ± 0.33 |
| TTACCATTTGAAAATTCACACACTTTATTTTGTTAT [CACACA_site3799] | 8.64 ± 0.38 |
| ATATATATATATATATGTACATATTTTATAACTGTA [XGTACX_site5395] | 10.2 ± 0.33 |
| ATTTATACATATAAACGTACATACATATATAATATT [XGTACX_site2969] | 8.54 ± 0.34 |
| TTTCTTCGAAATAGAACACTTGTGCAAAATAAGCAA [XGTACX_negctrl_site361] | 8.94 ± 0.014 |
| TGAACAAAAAAAAATTGTACTTTTTTTTTAATATTT [XGTACX_site7172] | 8.13 ± 0.25 |
| ATTTTTTTATAAAATTTTTATATAATTTATTATAAA [GTGCAC_negctrl_site96] | 8.16 ± 0.52 |
| AAAAAAAACAATCTCATACACACTAGGGATTAATTA [CACACA_site1776] | 8.34 ± 0.41 |
| TAAAGAGAAATATGTACATGCGAAAATGCCTTAAAT [TGCATGCA_site1050] | 8.97 ± 0.39 |
